Binding signal data for six molecules are collected here from publication PMC12136788.

The other results are listed elsewhere or left out.

T1: UNK ZnF1-3 (human, UniProt Q9C0B0 31-174)
T1 sequence: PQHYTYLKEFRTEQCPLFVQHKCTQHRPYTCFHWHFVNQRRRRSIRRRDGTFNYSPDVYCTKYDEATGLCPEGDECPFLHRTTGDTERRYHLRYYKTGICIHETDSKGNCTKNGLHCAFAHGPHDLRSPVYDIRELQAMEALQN

B1: chr1:39494447:39494448:+_ENSG00000168653_ENST00000372967|hu_mus|hu_hu_hu_mus_False|1_38 (ssRNA)
RNA: GGGAGUUCUACAGUCCGACGAUCGCACCGAGCGGCGUUCUUAUAGGGCUGUUCUGCGCUUAGGAACAUAAAGUGCCGGUCCAGGCUGAUGCCCAGCCUUUUCUGGAUGUCAAGGAAAGGCAUGGCUCUGCAGUGCCCCCUUGACAACAGAGGAUUGAGCAUCA
B2: chr16:94664806:94664807:+_ENSMUSG00000040785_ENSMUST00000117648|mus_mus|motif|central (ssRNA)
RNA: GGGAGUUCUACAGUCCGACGAUCAUUAGGACUCUCAAAGUAUGCAGCGGCAUUUUCAUCUGCUCUGUUGCUGGCGGCAAAAGAUGGCACCACUGGCAUGGAUCUUUGCAUUGGAUACUCAGAAGAAAUGUUGGCCAAAGGUGUCAACAGAGGAUUGAGCAUCA
B3: chr4:17845017:17845018:+_ENSG00000109805_ENST00000514176|hu_mus|hu_hu_hu_mus_False|88_88 (ssRNA)
RNA: GGGAGUUCUACAGUCCGACGAUCGCUCUCUUAACUUGUAUCUUCAUGAGAAAUUGGUGCAAGGUUAAGUUUACUUUUCUGUAGCGCAGCUGUUUUGGCUCGUCUGGGUAAUCUCAUCUUCAUUUCUGAUGGUGGUUCAUGAUCCAACAGAGGAUUGAGCAUCA
B4: chr2:179515052:179515053:+_ENSMUSG00000000305_ENSMUST00000000314|mus_hu|mus_mus_mus_hu_False|18_28 (ssRNA)
RNA: GGGAGUUCUACAGUCCGACGAUCGCUGUCCCAUGCAGUCACCGUGAACGCCACCUGCUCGGAGGGGACCUGCAGCUCCCGGGUGGCGAAGACUGUCCCAUCUGCCCCGACUUUGAAGUCCAAGCUGUUGGUCUCAUAUUGUGUCAACAGAGGAUUGAGCAUCA
B5: chr5:145543945:145543946:-_ENSG00000133706_ENST00000545646|hu_hu|hu_hu_hu_mus_True|38_38 (ssRNA)
RNA: GGGAGUUCUACAGUCCGACGAUCCUGAACGGCCAGUGGUGGGAAAUAAUCAAGCCAGUGCUCUGCUUCAGAAAACUUCACUAUGUCGUCAUCAGAGAGGCCAAGGGAUUUCAUAAUGUCCCACUGGUACUUAGAAGAUCCUGCCAACAGAGGAUUGAGCAUCA
B6: chr14:89307221:89307222:+_ENSG00000165533_ENST00000346301|hu_mus|hu_hu_hu_mus_False|38_78 (ssRNA)
RNA: GGGAGUUCUACAGUCCGACGAUCUCCUGUUUGGUUAGUGCCAGGGAGCUUCAAAGACGUUCCAGGGCGUGGGACCUGAGCAAUAGCAUUUUCAUCCAGCAUCAUUUCAGCAAUUCCUUCCUGGUCCACAUCAAUUUCAUCUAUCAACAGAGGAUUGAGCAUCA

This experiment has as its target T1, UNK ZnF1-3. Kind of experiment: nsRBNS (natural sequence RNA bind-n-seq); RBNS binding buffer (assumed for nsRBNS): 25 mM Tris pH 7.5, 150 mM KCl, 3 mM MgCl2, 0.01% Triton X-100, 500 ug/ml BSA, 20 U/ml SUPERase-In, 4 C; UNK is unkempt and MSI1 is Musashi-1; names of the RNAs are library labels; protein concentration not given here; high values mean tight binding.
Molecule B1 yielded a binding signal of 0.552 enrichment R. In turn, B2 yielded a binding signal of 1.18 enrichment R. The value for B3 was 0.466 enrichment R; that for B4 was 0.671 enrichment R; that for B5 was 1.11 enrichment R. Next, B6: 0.962 enrichment R.
